# Values quoted from earlier work, collected in patent EP0339681B1, “Antitumor antibiotic substance” (MEIJI SEIKA KAISHA LTD., priority 1988, dated 1989).
# System: various tumor cells
# Conditions: cited from earlier work
row,SMILES,cytotoxic effect on various tumor cells
1,COC(=O)C1(C)Nc2c(O)cc3c(c2C1=O)C(CCl)CN3C(=O)c1cc2cc(OC)c(OC)c(OC)c2[nH]1 (centres unmarked) [SF2582A],remarkable cytotoxic effect
2,COC(=O)C1(C)Nc2c(O)cc3c(c2C1=O)CC(Cl)CN3C(=O)c1cc2cc(OC)c(OC)c(OC)c2[nH]1 (centres unmarked) [SF2582B],remarkable cytotoxic effect
